Changes are numbered by the printed parent chain. These are yes or no findings as the source states them, for the method shown. In cells and extracts the contact can be indirect. Some results given as binding are weak or reduced against the parent protein; the word gives no strength. Tags and fused reporters may be left off the sequences shown.

By UniProt entry, the sequences of proteins in these tests, tags left out.
UniProt P49674: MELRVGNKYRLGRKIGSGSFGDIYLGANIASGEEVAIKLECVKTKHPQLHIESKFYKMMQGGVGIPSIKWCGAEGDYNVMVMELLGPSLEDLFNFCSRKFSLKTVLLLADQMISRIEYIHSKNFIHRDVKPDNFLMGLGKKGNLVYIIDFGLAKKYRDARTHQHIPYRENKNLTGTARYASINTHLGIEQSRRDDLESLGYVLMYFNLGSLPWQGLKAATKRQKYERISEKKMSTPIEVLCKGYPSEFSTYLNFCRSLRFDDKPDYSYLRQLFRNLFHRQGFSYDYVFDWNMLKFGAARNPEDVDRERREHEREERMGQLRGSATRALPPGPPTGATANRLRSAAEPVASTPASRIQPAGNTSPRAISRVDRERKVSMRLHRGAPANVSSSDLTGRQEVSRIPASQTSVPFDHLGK

Assay [1] concerns the target T1, FAM83H with endogenous C-terminal GFP tag (A549 FAM83H^GFP/GFP) (human (endogenous in A549)) (UniProt Q6ZRV2).
T1 sequence: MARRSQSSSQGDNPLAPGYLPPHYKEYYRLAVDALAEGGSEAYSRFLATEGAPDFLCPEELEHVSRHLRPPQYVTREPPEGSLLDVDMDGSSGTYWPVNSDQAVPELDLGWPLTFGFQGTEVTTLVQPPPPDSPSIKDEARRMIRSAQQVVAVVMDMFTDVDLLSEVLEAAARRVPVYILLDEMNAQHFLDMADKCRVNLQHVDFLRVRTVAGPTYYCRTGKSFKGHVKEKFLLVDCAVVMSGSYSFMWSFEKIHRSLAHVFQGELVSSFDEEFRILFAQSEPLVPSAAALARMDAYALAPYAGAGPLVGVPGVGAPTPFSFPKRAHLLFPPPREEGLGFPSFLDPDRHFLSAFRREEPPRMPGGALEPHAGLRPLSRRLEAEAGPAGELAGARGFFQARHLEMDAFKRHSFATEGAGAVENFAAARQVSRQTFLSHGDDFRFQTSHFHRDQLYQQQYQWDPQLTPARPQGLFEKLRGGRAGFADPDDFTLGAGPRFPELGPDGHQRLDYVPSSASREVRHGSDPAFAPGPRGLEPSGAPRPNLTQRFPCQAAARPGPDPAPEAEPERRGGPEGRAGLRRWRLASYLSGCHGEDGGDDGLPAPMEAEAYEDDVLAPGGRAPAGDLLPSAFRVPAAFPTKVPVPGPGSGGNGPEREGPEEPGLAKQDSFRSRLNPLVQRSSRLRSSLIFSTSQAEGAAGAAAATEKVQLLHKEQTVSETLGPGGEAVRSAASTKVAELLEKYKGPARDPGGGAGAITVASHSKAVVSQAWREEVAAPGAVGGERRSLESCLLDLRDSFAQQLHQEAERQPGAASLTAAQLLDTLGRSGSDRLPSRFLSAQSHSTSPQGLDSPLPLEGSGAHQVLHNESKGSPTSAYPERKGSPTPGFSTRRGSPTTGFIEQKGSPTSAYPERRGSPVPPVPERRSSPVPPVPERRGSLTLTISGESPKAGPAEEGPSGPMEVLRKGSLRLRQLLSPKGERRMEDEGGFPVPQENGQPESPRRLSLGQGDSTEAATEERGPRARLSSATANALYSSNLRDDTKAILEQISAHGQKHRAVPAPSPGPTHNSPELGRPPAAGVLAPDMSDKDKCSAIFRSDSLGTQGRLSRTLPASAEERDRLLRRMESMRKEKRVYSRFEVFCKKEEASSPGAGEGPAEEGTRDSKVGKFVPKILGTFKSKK
The assay is described as follows: co-IP; GFP IP from lysates of A549 FAM83H^GFP/GFP (knock-in) cells or of A549 wild type cells transiently expressing GFP; immunoblot of endogenous preys.

Assay [2] concerns the target T2, FLAG-FAM83H^(S287X, D236A) (human) (UniProt Q6ZRV2).
T2 sequence: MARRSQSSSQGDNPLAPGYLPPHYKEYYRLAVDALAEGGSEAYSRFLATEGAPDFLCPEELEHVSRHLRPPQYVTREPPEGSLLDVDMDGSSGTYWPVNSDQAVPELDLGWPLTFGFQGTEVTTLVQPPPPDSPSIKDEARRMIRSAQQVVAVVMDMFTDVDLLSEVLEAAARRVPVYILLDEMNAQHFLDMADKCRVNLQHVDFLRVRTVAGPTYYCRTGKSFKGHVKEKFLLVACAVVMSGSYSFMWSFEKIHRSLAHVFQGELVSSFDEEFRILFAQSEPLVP
The assay is described as follows: co-IP; anti-FLAG agarose IP from lysates of U2OS FAM83H-/- cells transiently transfected with FLAG-FAM83H constructs, 1 h at 4 °C (16 h in Fig. 6C); immunoblot of endogenous preys.

The target in assay [3] is T3, FLAG-FAM83H^Q452X (human) (UniProt Q6ZRV2).
T3 sequence: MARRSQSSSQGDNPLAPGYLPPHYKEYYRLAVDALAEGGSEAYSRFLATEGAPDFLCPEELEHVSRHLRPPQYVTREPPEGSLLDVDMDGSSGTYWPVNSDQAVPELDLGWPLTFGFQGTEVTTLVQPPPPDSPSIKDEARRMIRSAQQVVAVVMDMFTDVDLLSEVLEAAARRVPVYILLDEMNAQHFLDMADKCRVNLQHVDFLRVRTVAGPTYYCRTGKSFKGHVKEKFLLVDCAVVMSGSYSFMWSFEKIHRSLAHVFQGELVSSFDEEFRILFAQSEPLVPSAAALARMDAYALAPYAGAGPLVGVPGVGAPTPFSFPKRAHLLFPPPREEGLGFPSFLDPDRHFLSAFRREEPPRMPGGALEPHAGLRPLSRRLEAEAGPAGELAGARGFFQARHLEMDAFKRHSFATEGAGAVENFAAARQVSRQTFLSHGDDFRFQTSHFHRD
The assay is described as above.

The target of assay [4] is T4, FLAG-FAM83H^S287X (human) (UniProt Q6ZRV2).
T4 sequence: T2 sequence with A236D
The assay is described as above.

Turning to “protein kinase CK1 isoform ε (CK1ε), endogenous (from UniProt P49674 1-416) (enzyme)”, the binding result in assay [1] is “binds”; in assay [2], “no binding”; in assay [3], “binds”; in assay [4] it was “binds”.

Source of the values: article PMC7284315.
